In all, about 33,000 sequences were measured (“E-score (-0.5 to 0.5)”: median about -0.04, highest 2% from about 0.36 on). Some of the results follow.
target: T1, Hmlalpha2 (UniProt P0CY09); experiment: PBM E-score (8-mer binding enrichment) (E-score (-0.5 to 0.5)); higher = stronger / more preferred TF binding; most listed sequences are background and not binding sites; conditions: protein concentration: 200 nM; construct: GST-full length
T1 sequence: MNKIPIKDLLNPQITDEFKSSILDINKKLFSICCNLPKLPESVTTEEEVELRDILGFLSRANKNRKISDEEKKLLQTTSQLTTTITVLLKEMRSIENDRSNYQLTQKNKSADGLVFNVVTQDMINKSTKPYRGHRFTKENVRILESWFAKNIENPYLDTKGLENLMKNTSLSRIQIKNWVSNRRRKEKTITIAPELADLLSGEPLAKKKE
Experimental: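 Universal 'all 10-mer' protein binding microarrays (Agilent AMADID 015681) probed with GST-tagged S. cerevisiae TFs (full-length or DBD) made by in vitro transcription/translation (PURExpress), about 100-200 nM. Bound TF was detected with fluorescent anti-GST. Each ungapped 8-mer (which stands for itself and its reverse complement) is scored by the PBM enrichment score (E-score), a modified Wilcoxon-Mann-Whitney statistic from -0.5 to +0.5, computed with the Universal PBM Analysis Suite. Scale: above 0.35 generally sequence-specific binding.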

Sequence	PBM E-score
TAAGACAA	0.17
CTCCGAGC	-0.152
CATAATTA	0.315
AAGATGTA	0.268
ACCCTAAT	-0.101
ACGGGTTC	-0.19
CGGATCAA	0.00758
CCGCCGCA	-0.196
CCCGGATA	-0.252
CTCTCATC	-0.129
CGTCCACA	-0.0612
ACACCGAC	0.0329
ATGATTTA	0.209
CATCGGGA	-0.111
GGCAAATA	0.036
CAGGAGGG	-0.243
GTCCCATA	-0.175
CGGACACC	-0.209
GGGCGTTA	0.19
GTCCGACA	0.0479
AGCGGAGC	-0.247
TAGTCTGA	0.00755
GGACTATA	-0.0843
AGGTACCG	-0.183
CGAATTGC	-0.173

Sequence	PBM E-score
TCGCGGAA	-0.228
GAATCTGC	-0.125
GAGCCGCA	-0.149
CTACCCCC	-0.327
CCGACCGA	-0.207
ATTAGCAC	0.0472
GGACTGCC	-0.212
ATACGGAT	0.0151
ATCCGGCG	-0.11
ACAGCGCA	-0.0935
ATGTGAAT	0.297
AGCTACAG	-0.129
AAATCCAT	0.135
AGTTTACA	0.405
CCTCCTTC	-0.272
AAAGAAGC	0.0547
CCAAGCGC	-0.0307
CCGACTCC	-0.28
CTTGCGTC	-0.157
TAAAAGGA	0.0439
GGTAATCA	0.14
GCGAATTA	0.153
AGAGAGAC	-0.191
AAGTAGCC	-0.229
GACGTGGA	-0.209

Sequence	PBM E-score
AACATTTC	0.203
GAGCTTGC	-0.319
ACAATTGG	-0.0846
CCCTTTTA	-0.101
CGGACTAG	-0.336
GCCATACC	-0.28
TCGTCAGA	-0.127
GAGTTATA	0.0537
AGGATAGG	-0.257
GGCGAGGA	-0.128
ACATGCGA	0.351
GCGGCAAC	-0.125
GCTATCCA	-0.231
ATGTGGTA	0.143
CGTTAGAG	-0.0906
GCGAGAGA	-0.24
ACTGATCT	0.139
ACCTCCAC	-0.173
GAGGACAC	-0.104
ATCGGGTC	-0.154
CAGCACTC	-0.0774
ATTCTTAA	0.148
CCGGGAAC	-0.219
CCCTTGCC	-0.285
GCGACACC	-0.121

Sequence	PBM E-score
GATTTTGC	-0.0953
CCACCGGC	-0.34
CATCGCCG	-0.0581
ACCCCTTC	-0.156
CGTCTTTA	0.0759
GATTTAAA	0.0171
CGTCTTGC	-0.101
GCTTGTTA	0.286
GCCCTTTA	-0.0469
ACCACCAT	-0.144
AATAAGCT	0.131
GCTATAGC	-0.344
AAGCTAGG	-0.186
CAGCAATA	0.0445
CCCCAGTC	-0.309
GGCCGATA	-0.0544
ATCAAGAT	-0.0259
AGGGCTTC	-0.0279
ACAAGGGG	0.152
TACTTTAA	0.208
ATGGCTTA	-0.0612
TTCACGAA	0.019
ACCTATCG	-0.0298
CATTCCGG	-0.182
CCAATATA	-0.0161

Sequence	PBM E-score
CAGGCCCC	-0.311
GCCATTAC	0.145
AGCATAGG	-0.178
ATAGTCGA	0.0472
CGGATATC	-0.0199
ACACTAGA	0.0859
CCCATGCA	0.132
TCTATAAA	0.116
CATCTTAC	0.0513
ACAACTAT	0.173
ATTGATGA	-0.0591
CGGCCCAA	-0.356
CGGAACCA	-0.0561
GACTAGCC	-0.315
TTAGTAAA	0.319
ACCGCGAG	-0.0948
ACGATGGA	0.039
AGATGCCG	-0.21
AAGTAGGC	-0.0798
AGGGGATG	-0.188
ACCCACAT	-0.0281
CCACAAAG	-0.112
CCGAATAA	0.0885
ACAGAAGA	0.073
GTACGCTA	-0.0324

Sequence	PBM E-score
ACGGTGTG	0.00286
ACATTTTG	0.14
TCCTCAGA	-0.213
CGCGCAAG	0.097
CAACAACC	0.163
CGAGCCAC	-0.213
CCTCTGAC	-0.189
AAGATCAT	0.195
CTAAGTTA	0.158
CCGCTGCA	-0.126
ATCAGGAA	-0.245
ATAGACGC	0.197
CTGTGACA	0.0176
AACAGAGC	0.00102
CTGCGAAG	-0.144
AACATCTG	0.128
GGCACCCC	-0.207
AGCCGAGA	-0.251
AGACACGG	0.228
CTGTCTTA	0.0838
CGACTAGC	-0.121
ATGCCCCA	-0.366
CAAGGAGG	-0.0485
TCGGGAGA	-0.175
AATCTTCT	-0.0364

Sequence	PBM E-score
AGAATCCG	-0.106
GAGCGTGC	-0.0403
ATATTTGC	0.121
AGCAGATC	0.109
ATCGCAGG	-0.0866
GGATGTAA	0.397
ATTGAGAC	-0.0756
CACTTTAG	-0.227
GGATTCTA	-0.0376
ATCTGTTC	-0.117
CTCGTAGC	-0.173
CGGGCGAG	-0.184
ATCGCCTG	-0.156
AAATAACG	0.231
GCAGAGGC	-0.201
AGACGCAA	-0.0532
GGGCAGAA	0.0375
CCCTTACG	-0.0873
CGTCTTAC	-0.0226
CCGAAATC	-0.113
CATATCTA	0.0761
TGTGCAAA	0.223

From the supplement of paper PMC3334620
